“And” between values parts separate entries of the source, which are not always exact repeats. Equal entries are not always repeated.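 The compound was tested at five concentrations on cells cultured in 96-well plates, with a 48-hour exposure period. GI50 is the concentration that inhibits growth by half. TGI marks complete inhibition of growth.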 The source made the active and inactive calls. No stated cut-off is given here; in the data, active means GI50 below about 0.43 µM; inactive means the rest. Peptide text beside a SMILES is read from it. Some results are limits rather than exact numbers.

For this assay, the system named is NCI-H322M lung. The assay can be described thus: growth of human tumour cells (NCI), 48 h.

Regarding `C[C@]12CCC3c4ccc(O)cc4CC[C@H]3C1CC(=O)N(CCN1CCCC1)C2=O` (stereo not given in full), the TGI is > 10 µM.
The same measure, in the same setting: the same measure for `COC(=O)C1=C(C)NC(C)=C(C(=O)OC)C1c1ccc(NO)cc1`: > 100 µM; for `Cc1ccc(C[N+](C)(C)N)cc1C`: > 10 µM.
Consider `Cn1cc(C2=C(Sc3ccccc3)C(=O)NC2=O)c2ccccc21`, for which the GI50 was > 25 µM and the TGI was > 25 µM.
As to `O=C1C=CC(=O)c2c(O)c(CO)c(CO)c(O)c21`, the TGI amounted to 3.03 µM.
Regarding `COc1ccc2c(c1)N(CCO)C1=C(C(=O)OC1)C2c1cc(OC)c(OC)c(OC)c1` (stereo not given), the GI50 was 0.0428 µM and the TGI is > 50 µM.
Regarding `COc1ccc(/C=C/C(=O)C(C)C)cc1`, the TGI was > 100 µM.
For `CC(=O)OCC1CCC(=C2C(=O)OC(C)(C)OC2=O)N1` (stereo not given), the TGI was > 100 µM.
Same read-out and setting: the same measure for `COC(=O)[C@@]12OC[C@]34[C@H]([C@@H](O)[C@@H]1O)[C@@]1(C)CC(=O)C(OC(C)=O)=C(C)[C@@H]1C[C@H]3OC(=O)[C@H](OC(=O)C=C(C)C)[C@@H]24`: 15.1 µM; for `CC1(C)OCC(C2CCC3(C)C4=CCC5C(C)(C)C(O)CCC5(C)C4CCC23C)CC(O)C1O` (stereo not given): 31.2 µM; for `CC1CC2=C(C(=O)O1)C(c1ccccc1)Nc1ccccc1N2` (stereo not given): > 100 µM.
As to `Cc1ncc([N+](=O)[O-])n1CC(O)Cn1ccnc1[N+](=O)[O-]` (stereo not given), the TGI is > 100 µM.
Same read-out and setting: the same measure for `CCCCCCCCCCCCCCCCP(=O)(OC)OC`: 30.9 µM; for `CCNC(=S)NNC(=O)c1nsc2ccccc12`: > 100 µM.
In turn, `Cc1cc2c(cc1C)N1C(Cl)=C3CCCCC3=C(C#N)C1N2` (stereo not given) had a TGI of 52.3 µM.
Consider `COc1ccc(-c2[nH]c(=O)n(C3OC(CO)C(O)C(O)C3O)c(=O)c2C#N)cc1` (stereo not given), for which the TGI was > 100 µM.
Same read-out and setting: the same measure for `O=C(Nc1ccn(C2CC(O)C(CO)O2)c(=O)n1)c1ccccc1` (stereo not given): > 100 µM.
Still for that read-out and setting: the same measure for `COC(O)C12OC3CO[Si](C(C)C)(C(C)C)O[Si](C(C)C)(C(C)C)OC3C1Oc1nc(=O)ccn12` (stereo not given): 30.4 µM; for `COc1cc2c[n+]3ccc4cc(OC)c(OC)cc4c3cc2cc1O`: > 100 µM.
Turning to `CCOC(=O)c1ccc2c(c1)c1c(C)c3ccncc3c(C)c1n2C`, the GI50 is 0.731 µM and the TGI stood at 3.9 µM.
On the same counts, the results for `Nc1nc2c(c3cnccc13)C(c1cccc(Br)c1)Cc1cnccc1-2` (stereo not given) are 1.66 µM and 19.1 µM.
Take `COc1cccc2c1C(=O)c1c(O)c3c(c(O)c1C2=O)C[C@@](O)(C(=O)CO)C[C@@H]3OC1CC(N)C(O)C(C)O1` (stereo not given in full): the outcome was inactive.
Regarding `COc1c(OCCCN2CCOCC2)ccc2c3n(c(=NC(=O)c4cnc(N)nc4)nc12)CCN3`, the TGI is 1.18 µM and 1.31 µM and 1.81 µM.
Same read-out and setting: the same measure for `COC(=O)NC(Nc1ccc(Cl)cc1Cl)(C(F)(F)F)C(F)(F)F`: > 100 µM.
Same read-out and setting: the same measure for `O=C1/C(=C/c2cccc(O)c2)COc2ccccc21`: 32.9 µM; for `COc1ccc2c(c1)O[C@@H]1c3ccc(OC)cc3OC[C@H]21`: > 100 µM; for `O=C(O)/C=N/NC(=S)NC1CCCCC1`: > 100 µM.
The same measure, in the same setting: in the case of `O=C1Nc2c(Cl)cc(Cl)cc2/C1=N/N=C/c1ccccc1O` it was 48.8 µM; in that of `O=c1c2sc3nc(NCCN4CCCCC4)ncc3c2ncn1-c1ccccc1`, > 100 µM; in that of `CC12CCC(C(=O)n3c1nc1ccccc13)C(C)(C)O2` (stereo not given), > 100 µM.
In the case of `COC(=O)CNC(=O)c1cc(C)cc2c1Oc1c(cc(C)cc1C(=O)NCC(=O)OC)S2`, the TGI was > 100 µM.
The same measure, in the same setting: the same measure for `C[C@]12CCc3nonc3C1CC[C@@H]1C2CC[C@]2(C)C(=O)CCC12` (stereo not given in full): > 100 µM; for `C=CCN(C(=O)OC(C)(C)C)C1=CC2C(C)=CN(S(=O)(=O)c3ccccc3)C2C(OCc2ccccc2)=C1` (stereo not given): > 100 µM.
`Cc1ccc(S(=O)(=O)O/N=C2\CCC\C2=C/c2ccccc2)cc1` yielded a TGI of 28.2 µM.
As for `CC1=NC(C(=O)O)Cc2c1[nH]c1ccccc21` (stereo not given), the TGI is > 100 µM.
For `COc1cc(CC(C)C(C)Cc2ccc(O)c(OC)c2)ccc1O` (stereo not given), the GI50 was 14.7 µM; the TGI is 50 µM and 28.2 µM.
For the compound `CN1CC[C@]2(C)c3c(O)cccc3CC3CCCC1C32C` (stereo not given in full), the TGI is > 100 µM.
Still for that read-out and setting: the same measure for `COc1cccc2c1C(=O)c1c(O)c3c(c(O)c1C2=O)CC(O)(C(O)CO)CC3OC1CC2C(OC3COCC(C#N)N32)C(C)O1` (stereo not given): < 0.01 µM; for `Cn1c(=O)c2ccccc2c2nc3ccccc3nc21`: > 100 µM; for `CCN(C1=CC(=O)NC2CCCCN12)c1ccccc1` (stereo not given): > 100 µM.
The same measure, in the same setting: the same measure for `COC(=O)[C@H](Cc1ccccc1)NC(=O)[C@H](Cc1ccccc1)NC(=O)CN1C(=O)[C@@H]2C3C=CC(C3)[C@@H]2C1=O`: 31.1 µM and 31.7 µM.
On the same count and under the same terms, the same measure for `COC(=O)[C@@H](Nc1ccccc1)[C@@]1(C(=O)OC)SC12c1ccccc1-c1ccccc12`: > 100 µM.
For `O=C1NC(=NCCc2cccs2)S/C1=C\c1ccc2ncccc2c1`, the GI50 was 14 µM and the TGI was > 25 µM.
For the compound `O=C1C=CC(=O)c2c1c1c(c3c2C2c4ccccc4C3c3ccccc32)C2c3ccccc3C1c1ccccc12`, the TGI came out at 49.5 µM.
With `O=C1/C(=C/c2ccc3c(c2)CCC3)Cc2cc3c(cc21)CCC3`, the TGI was > 100 µM.
On the same count and under the same terms, the same measure for `NCCCCC(NC(=O)OCc1ccccc1)C(=O)NCC(N)=O` (stereo not given) (HELM PEPTIDE1{[O=C(OCc1ccccc1)[*:2]].[NCCCCC(N[*:1])C(=O)[*:2]].G.[am]}$$$$V2.0): > 100 µM; for `CC(C)=CCC[C@@H](C)C1=C(O)C(c2c(I)c(=O)n(C)c(=O)n2C)=C(C)C(=O)C1=O`: > 100 µM.
Still for that read-out and setting: the same measure for `CC(=O)OC1C[C@@H](C)C2(C[C@H](O)c3ccoc3)C(=O)OC[C@]13C2CCC(O)C31CO1` (stereo not given in full): > 100 µM; for `COc1ccc(C2=NN(C(=O)c3ccc(Cl)cc3)C(O)(c3cc(F)c(Cl)cc3Cl)C2)cc1OC` (stereo not given): > 100 µM.
Same read-out and setting: in the case of `CN(C)CCNC(=O)c1ccc(Cl)c2c(Nc3ccc(S(=O)(=O)N=C(N)N)cc3)c3ccccc3nc12` it was 19.9 µM.
On to `COc1cc(/C=N/NC(=O)c2ccc(NC(C)=O)cc2OC)ccc1O`, for which the TGI was > 100 µM.
As for `N#CC(C#N)=C/C=C(\Sc1ccc(F)c(Cl)c1)c1ccc(Cl)cc1`, the GI50 was 16.2 µM and the TGI turned out to be 31.9 µM.
Take `COc1ccc(Nc2nc3cc(C(F)(F)F)ccc3nc2C(=O)O)cc1OC`: the TGI is > 100 µM.
The same measure, in the same setting: the same measure for `O=[N+]([O-])C(=C1NCCN1)/C(Cl)=C(/Cl)N1CCOCC1`: > 100 µM.
`CC(C)(O)c1coc(S(=O)(=O)/N=C(\O)Nc2c3c(cc4c2CCC4)CCC3)c1`: the GI50 was > 100 µM and the TGI was > 100 µM.
For `C=C(C(=O)OC)[C@H]1CC/C(C)=C/CC[C@@](C)(O)C=CC[C@@]2(C)O[C@@H]2C1`, the TGI was determined as 79.6 µM.
On to `COc1ccc(C2=C(c3cn(C)c4ccccc34)C(=O)NC2=O)cc1`, for which the GI50 was > 25 µM and the TGI was > 25 µM.
On to `NC(CSC(=O)c1ccccc1)C(=O)O` (stereo not given), for which the TGI is > 100 µM.
The same measure, in the same setting: the same measure for `CCOc1cc(NC(C)=O)ccc1C(=O)NN1C(=O)/C(=C/c2ccco2)N=C1c1ccccc1`: > 100 µM; for `NC(=O)NN=C1C[C@H]2CCCC[C@H]2C1`: > 100 µM; for `CN(C)C=C1C(=O)N(C)C(=O)N(C)C1=O`: > 100 µM.
On to `NC(N)=NS(=O)(=O)c1ccc(NC(=O)c2cccc3c(NNc4ccc(C(=O)O)cc4)c4ccccc4nc23)cc1`, for which the TGI was > 100 µM.
As to `CC(=O)Nc1cc(C(=O)Nc2cc(C(=O)Nc3cc(C(=O)Nc4cc(C(=O)Nc5cc(C(=O)NCCC(=O)NCCCN(C)C)n(C)c5)n(C)c4)n(C)c3)n(C)c2)n(C)c1`, the TGI was > 100 µM.
Same read-out and setting: in the case of `O=c1nc(Oc2c(F)c(F)c(F)c(F)c2F)ccn1C1OC(CO)C(O)C1O` (stereo not given) it was > 100 µM.
`O=C(CC(=O)Nc1ccccc1Cl)NNC(c1cc(N=Nc2ccc(Br)cc2)ccc1O)P(O)O` (stereo not given): the TGI is 7.96 µM.
The same measure, in the same setting: in the case of `Cc1ccc(S(=O)(=O)NC(CCC(=O)NN)C(=O)NN)cc1` (stereo not given) it was > 100 µM.
In the case of `Ic1ccc2[nH]cc(SSc3c[nH]c4ccc(I)cc34)c2c1`, the GI50 is 2.9 µM and the TGI was 12 µM.
For the compound `CC[C@H]1C[C@@H](O)[C@@H]2[C@H](O)[C@H](O)CN2C1`, the TGI is > 100 µM.
As for `O=c1[nH]c2cc(C(F)(F)F)ccc2nc1CBr`, the TGI turned out to be 30.4 µM.
Still for that read-out and setting: the same measure for `Cc1cn(CCOCCOC(=O)NC(CCCN=C(N)N)C(=O)O)c(=O)[nH]c1=O` (stereo not given): > 100 µM.
As for `CCOC(=O)[C@@H]1C2C(=C[C@H]3[C@H]1C(=O)N1CCCC[C@H]31)CCCN2C(=O)OCc1ccccc1` (stereo not given in full), the TGI is > 100 µM.
Consider `CN1C(NN)=NS(=O)(=O)c2ccccc21`, for which the TGI is > 100 µM.
Turning to `CCc1c2c(nc3ccc(O)cc13)-c1cc3c(c(=O)n1C2)COC(=O)[C@]3(O)CC`, the GI50 was 0.0712 µM and the TGI is > 18.6 µM.
On the same counts, the results for `CCOC(=O)c1cc(C(=O)c2ccc(Cl)cc2)n2ccc(-c3cc[n+](CC(=O)c4ccc(OC)cc4)cc3)cc12` are 1.66 µM and 3.2 µM.
As to `O=C1/C(=C\c2ccc(Br)cc2)CN(C(=O)c2ccccc2F)C/C1=C\c1ccc(Br)cc1`, the GI50 was 7 µM and the TGI stood at 38.3 µM.
Compound `COc1ccc2[nH]c3c(C)c4ccnc(NCCCN(C)CCCNc5ccc6nnn7c8ccccc8c(=O)c5c67)c4c(C)c3c2c1` showed a TGI of 2.18 µM.
Same read-out and setting: the same measure for `S=C(Nc1c2c(nc3ccccc13)CCCC2)Nc1c2c(nc3ccccc13)CCCC2`: > 100 µM.
With `COc1ccc2c(CCC(c3ccccc3)c3ccccc3)c3[n+](cc2c1OC)CCc1cc2c(cc1-3)OCO2`, the GI50 is 2.78 µM and the TGI was determined as 12 µM.
`Cc1cc2c(c(C(N)=O)c1C)-c1cccc(Cl)c1C2=O`: the TGI is > 100 µM.
In the case of `COc1cc(C(=O)/C=C/c2c(-c3cccs3)nc3sc(C)cn23)cc(OC)c1OC`, the GI50 was 6.72 µM and the TGI is > 100 µM.
With `O=C1c2ccccc2-c2c1c1ccccc1c(=O)n2-c1cccnc1`, the TGI is > 100 µM.
On the same count and under the same terms, in the case of `O=c1c2ccccc2nc(/C=C(\O)c2ccccc2)n1-c1ccccc1Cl` it was > 100 µM; in that of `CNC(=O)CCC(NC(=O)OC(C)(C)C)C(=O)NC(Cc1ccc(NC(=O)CCCCC(C)=O)cc1)C(=O)NCC(=O)NC` (stereo not given), > 100 µM.
Take `CCOC(=O)c1cc(NC(=O)c2cc(NC(=O)c3cc(NC(=O)c4c(-c5ccccc5)noc4C)cn3C)cn2C)cn1C`: the GI50 was > 100 µM and the TGI is > 100 µM.

For the origin of these results see PubChem BioAssay (NCI).
